Some of the results follow.
The sequences below were run on PfHDP1 homeodomain (GST-tagged) (assay: gcPBM binding intensity (ln(normalized median fluorescence intensity)); higher = stronger DNA binding).
In short: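 In this array assay, P. falciparum DNA-binding domains with a GST tag, expressed in E. coli, were applied for 1 h to primer-extended double-stranded 36-bp intergenic genomic probes and negative controls on an Agilent 4 × 180k array. Bound protein was visualised with Alexa488 anti-GST antibody at 488 nm. Binding intensity is the highest Masliner-normalised natural-log median intensity across replicate spots of either probe orientation.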

Sequence | gcPBM binding intensity (ln)
AAACGATTAATGTGTACACACATAGTTATAAACATA [CACACA_site7073] | 6.67
TTACACATGTATTTGGTGCATGTTGTTAACAAAATA | 9.83
ATTAAAACACAATATTCACACATGTATATTATATAT [CACACA_site5191] | 6.61
TTAACATACACTCTAGTGCATATATATAACAAAATA [GTGCAC_site9724] | 9.09
ATCATATTTATATTGGTGCATTATGCATGAAATTTA [GTGCAC_site9571] | 10.6
AATTTAAATCTTCAAAGTACTAAAAAAAAAAATAAT [XGTACX_site8566] | 6.62
TTTTTTAAATGTCATTGTACATAATTCAATATATAA [XGTACX_site5] | 6.62
TGACTTTTTTTATGTTGTACTTATTATAAAAAAAAT [XGTACX_site7736] | 6.99
AGCTAATATATCTTATATTCATATAAAAAAATATAT [CACACA_negctrl_site1786] | 6.26
TTATAAAATATTTTTTGTACACATAATAGTAAGACT [XGTACX_site933] | 6.64
CACCCACACCAACACACACACATATATAATATATAT [CACACA_site595] | 7.43
CCATAATATTATAGACGTACGAATATATATAAAAGA [XGTACX_site7295] | 7.24
GATTATTTTATAAGTACACACATTTATCTATAATAA [CACACA_site7256] | 6.39
AATACATGCTTATTTTAACACACAAATGGTAGTAAT [CACACA_site8154] | 6.41
AACCATGTTAACAACGCATGTATATCTATGGGTTTA [TGCATGCA_site419] | 6.08
CTTATATTTAGACACACACACAATAAAATGAAAAAA [CACACA_site1031] | 7.11
GATTAATACACATTCTTCCGACATAATAAGAAAAAG [GTGCAC_negctrl_site7] | 6.77
TTTTTTTTTTTTTTATGTACTAAAAAATGAAAAATA [XGTACX_site6812] | 6.33
AAATACTTAACATTGGTGCATATTTGTAAAATTATT [GTGCAC_site9515] | 10.2
TTATTTATTTATTGGGTGCACTTGATTTAAATATGC | 9.24
AAAAAAAAAAAAAAAACACACACATATATATAATAT [CACACA_site9038] | 6.63
TTTTGGCTTCTAATATTATACAAAATGGTAAGGAAA [TGCATGCA_negctrl_site169] | 6.55
ATGCAATAATAATATTGTACGCATATATTTTTTACT [XGTACX_site3384] | 6.21
AGAATACAAAATTGCACACATATTGTGAAAATGTTA [CACACA_site4005] | 10
ATTATAATAATGTGATGTACATTAATTGTCTTCCTA [XGTACX_site5404] | 6.5
